Measured values from US20200377587A1 (NANTBIO, published 2020).

Tests used:
IL-8 [1] = target: T1, IL-8 (UniProt P10145 28-99, limits assumed); test: SPR, immobilized IL-8, IgG, 37 C
T1 construct: also called Interleukin-8; immobilized IL-8
T1 sequence (looked up): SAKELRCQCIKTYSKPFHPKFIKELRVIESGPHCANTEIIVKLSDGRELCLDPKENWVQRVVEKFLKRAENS
Description: (§1) Here, scFv and corresponding humanized IgG₁ were prepared using the sequences as indicated, and KD was determined using SPR with immobilized IL-8 as […] on the chip surface. All values are expressed as nanoM values at temperatures as indicated.

IL-8 [2] = target: T1, IL-8; test: SPR, immobilized IL-8, IgG1, 25 C
Description: as §1

Kd (IL-8 [1]): 3.45 nM | Kd (IL-8 [2]): 2.21 nM
B1: IgG1 49-10 (antibody, V domains shown)
VH: [skipping about 100 residues]DLGWLSRLFAGFDVWGQGTLVTVSS
VL: DIQMTQSPSSLSASVGDRVTITCQASQDISNYLNWYQQKPGKAPKLLIYDASNLETGVPSRFSGSGSGTDFTFTISSLQPEDIATYYCQQDYGYPLTFGQGTKVEIK
notes: also called 49-10 IgG1; Clone 49-10
